In PubChem BioAssay AID463173 (ICCB-Longwood Screening Facility, Harvard Medical School, 2010):
About 4,300 (8.3%) of roughly 52,000 compounds were called active. Rule as the data show it: active = survival mostly below about 52% (no sharp cut-off); inactive = mostly above about 56%. The list shows a part of the results.

test system: DeltatarO mutant; assay: S. aureus survival, RN4220 and DeltatarO strains – OD600, teichoic acid synthesis inhibitors, primary screen (AID 463173); settings: S. aureus RN4220 wild type/DeltatarO growth, OD600, 18 h, active compounds read low, screened at 18.75 µg/mL (by protocol)

Row | SMILES | survival
1 | COc1ccc(NC(=O)C(=O)NCC2(c3ccccc3)CCCC2)c(OC)c1 | inactive: 63%
2 | COc1ccc(C(=O)NCC(c2ccc3c(c2)OCO3)N2CCN(c3ccc(F)cc3)CC2)cc1 (stereo unspecified) | inactive: 86%
3 | COc1cccc(/C=N/NC(=O)COc2c(C)cccc2C)c1O | inactive: 88%
4 | CC1(C)CC(=O)C2=C(C1)NC1=C(C(=O)CC(C)(C)C1)C2c1ccc2c(c1)OCO2 | inactive: 96%
5 | Cc1ccc(N(CC(C)C)S(=O)(=O)c2nnc(NC(=O)c3cccs3)s2)cc1 | active: 34%
6 | Fc1ccc(Nc2nc(Nc3ccc(F)cc3)nc(N3CCOCC3)n2)cc1 | inactive: 87%
7 | CCCCn1c(SCC(=O)Nc2ccc(F)cc2)nc2c(sc3ccccc32)c1=O | inactive: 94%
8 | CC(C)c1ccc(NC(=O)Cn2nnc(C(=O)NCc3cccs3)c2N)cc1 | inactive: 112%
9 | Cc1ccc(O)c(C2=Nc3ccccc3N=C(c3cccc(F)c3)C2)c1 | inactive: 121%
10 | O=C(Nc1ccc(C(=O)N2CCN(c3ccc(Cl)cc3)CC2)cc1)c1nsc2ccccc12 | inactive: 72%
11 | Cc1ccc2oc(-c3cc(NC(=O)c4cccs4)cc(C)c3O)nc2c1 | inactive: 138%
12 | COc1ccc(Br)cc1CNC(=O)C1COc2ccccc2C1 (stereo unspecified) | inactive: 49%
13 | CCOCN(C(=O)Cn1cnc2cc(C)c(C)cc21)c1c(C)cccc1CC | inactive: 50%
14 | CCc1ccccc1NC(=O)c1cc(-c2ccc3c(c2)OCO3)on1 | inactive: 147%
15 | CCOc1ccc(/C=C/c2nc(C#N)c(N3CCN(c4ccccc4)CC3)o2)cc1 | inactive: 77%
16 | CC1CCCCN1C(=O)CN1CCN(C)CC1 (stereo unspecified) | inactive: 93%
17 | CCOc1ccc(N(CC)S(=O)(=O)N2CCCC(C(=O)NCCc3ccccc3OC)C2)cc1 (stereo unspecified) | inactive: 80%
18 | CC1CCCCN1C(=O)CSc1nnc(-c2ccccc2Cl)o1 (stereo unspecified) | inactive: 74%
19 | COc1ccc(-c2cn3nc(N4CCC(C(=O)Nc5ccc(C)cc5)CC4)sc3n2)cc1 | inactive: 120%
20 | Cc1cccc(Oc2coc3cc(OCC(=O)NC4CCCCC4)ccc3c2=O)c1 | inactive: 48%
21 | CCOC(=O)c1oc2c(c1C)/C(=N/O)CCC2 | inactive: 93%
22 | CN(C)c1cc[n+](Cc2ccccc2)cc1 | inactive: 99%
23 | CCc1ccc(-n2nc(C)c3c(C(=O)Nc4cc(C)ccc4C)cc(C)nc32)cc1 | inactive: 60%
24 | CCN(CC)CC(=O)Nc1nc2ccc(OC)cc2s1 | inactive: 76%
25 | CCOc1ccccc1CNC(=O)C1CCCN(S(=O)(=O)c2ccc3c(ccn3C)c2)C1 (stereo unspecified) | inactive: 70%
26 | COC(=O)c1sc2cccc(F)c2c1S(=O)(=O)N1CCN(c2ccc(C)cc2C)CC1 | inactive: 102%
